PubChem BioAssay AID485294 (National Center for Advancing Translational Sciences (NCATS), 2010)
About 150 (0.041%) of roughly 370,000 compounds were called active. Inconclusive results, whose numbers are uncertain, are shown with a selection of clear calls. Calls come from the whole dose curve; as a rule, active = well fitted inhibition curve with a large enough effect; inconclusive = small, poorly fitted or top-dose-only effect; inactive = flat fitted curve, though single readings scatter. No potency is given beside an inconclusive call; the fits are too rough.
Note: nearly all actives have a fitted effect of over 25% in size.
Potency is the fitted concentration of half-maximal effect; tags give direction and shape of the fitted curve.
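Throughout, for activity change, negative = inhibition: 0% = no-compound wells and -100% = no-enzyme wells.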

What follows are compounds tested against Beta-lactamase (Escherichia coli (strain K12)) (UniProt P00811) (assay: qHTS Inhibitors of AmpC Beta-Lactamase (assay with detergent)). Conditions: AmpC hydrolysis of nitrocefin, absorbance 480 nm, 0.01% Triton; activity change, negative = inhibition: at 114 µM (top of the series).
Chain of UniProt P00811 (P00811 whole entry, looked up): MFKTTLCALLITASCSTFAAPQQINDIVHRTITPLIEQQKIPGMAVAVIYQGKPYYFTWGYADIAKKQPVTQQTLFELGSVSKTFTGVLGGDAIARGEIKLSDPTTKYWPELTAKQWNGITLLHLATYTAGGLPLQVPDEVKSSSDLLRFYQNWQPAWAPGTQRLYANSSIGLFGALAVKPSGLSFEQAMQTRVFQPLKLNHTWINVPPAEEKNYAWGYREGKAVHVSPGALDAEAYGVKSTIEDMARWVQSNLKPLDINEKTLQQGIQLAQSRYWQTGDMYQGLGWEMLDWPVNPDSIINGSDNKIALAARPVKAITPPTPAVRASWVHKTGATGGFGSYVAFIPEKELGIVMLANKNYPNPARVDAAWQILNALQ
Method in brief: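 AmpC (5.3 nM in the dispensed reagent) in 20 mM phosphate pH 7.0 with 0.01% (detergent screen) or 0.0001% Triton X-100 was preincubated with compounds for 15 min at room temperature. Nitrocefin was then added from an 800 uM solution, and hydrolysis was followed at 480 nm.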
For COC(=O)[C@H](C)NC(=O)Nc1ccc(C)c(C)c1, the Potency was inconclusive [inhibitor, full curve, poor fit].
CCC(=O)Nc1cc(C(=O)OC(C(=O)c2ccc(C)c(C)c2)c2ccccc2)ccc1C (stereo unspecified) was tested, and the “activity change, negative = inhibition” value was inactive: 1.25%.
With COc1ccc(CCNC(=O)c2cc(-c3ccc(Cl)cc3)on2)cc1OC the “activity change, negative = inhibition” value was inactive: 9.06%.
COc1cccc(NC=C2C(=O)OC(C)(C)OC2=O)c1 was tested, and the Potency was inconclusive [inhibitor, full curve, poor fit].
For CC(C)CCC1(C)NC(=O)N(CC(=O)c2ccc[nH]2)C1=O (stereo unspecified), the “activity change, negative = inhibition” value was inactive: -6.35%.
With CC(C)C[C@H]1CN=C(Nc2ccccc2)N1CCC1CCCCC1 the Potency was inconclusive [inhibitor, partial curve, poor fit].
In the case of COc1ccc(/C=C2/C(=O)NC(=O)N(c3ccc(C)c(C)c3)C2=O)cc1CN1C(=O)c2ccccc2C1=O, the Potency was inconclusive [inhibitor, partial curve, poor fit].
With O=C(N=Nc1c(O)[nH]c2ccc([N+](=O)[O-])cc12)c1ccccc1[N+](=O)[O-] the “activity change, negative = inhibition” value was inactive: 6.34%.
Cc1cc(C)nc(-n2nc(C)c3c(C(F)F)cc(C)nc32)n1 was tested, and the Potency was inconclusive [inhibitor, partial curve, poor fit].
For O=C(c1ccncc1)N1c2ccccc2Sc2ccccc21, the “activity change, negative = inhibition” value was inactive: 2.43%.
In the case of O=C(CNc1cccc(S(=O)(=O)N2CCCC2)c1)Nc1cccc(F)c1, the “activity change, negative = inhibition” value was inactive: -12.8%.
With COc1cc([C@H]2[C@@H]3CCCC[C@]3(O)CCN2CC(=O)Nc2ccc(C)cc2)ccc1O the Potency was inconclusive [inhibitor, full curve].
Cc1cccc2cc(CN(Cc3ccco3)C(=O)N3CCCC3)c(=O)[nH]c12 was tested, and the Potency was inconclusive [inhibitor, partial curve].
With CCCc1ccc2c(N)c(C#N)sc2n1 the Potency was inconclusive [inhibitor, full curve, poor fit].
For Cn1c(NC(=O)CCc2ccccc2)cc(=O)n(C)c1=O, the “activity change, negative = inhibition” value was inactive: -12.9%.
In the case of CCCCCC(=O)c1c(C)[nH]c(C(=O)OCC)c1C, the “activity change, negative = inhibition” value was inactive: -17.4%.
For CCN(CC)CCNC(=O)c1ccc(NC(=O)Cc2cccc3ccccc23)cc1, the “activity change, negative = inhibition” value was inactive: -6.9%.
For S=C(Nc1ccc(Oc2ccc(NC(=S)NC3CCCCC3)cc2)cc1)NC1CCCCC1, the “activity change, negative = inhibition” value was inactive: -2.76%.
In the case of COc1cc(C(=O)CSc2nccn2C)cc(OC)c1OC, the Potency was inconclusive [inhibitor, full curve, poor fit].
With O=C(CCc1ccccc1)NNC(=O)Nc1cccc(Cl)c1 the Potency was inconclusive [inhibitor, full curve].
For COc1ccc(CCNC(=O)COC(=O)c2ccc(OC)cc2OC)cc1, the Potency was inconclusive [inhibitor, full curve, poor fit].
For COc1ccccc1NC(=O)c1cnc2n(c1=O)CCS2, the Potency was inconclusive [inhibitor, partial curve, poor fit].
COc1ccc(S(=O)(=O)N2CCCC2)cc1Br was tested, and the “activity change, negative = inhibition” value was inactive: 0.286%.
CC(CN1CCCCC1)OC(=O)/C=C/c1ccccc1 (stereo unspecified) was tested, and the “activity change, negative = inhibition” value was inactive: -6.88%.
With Cc1ccc(-c2cc(=O)c3cc(F)ccc3[nH]2)cc1 the “activity change, negative = inhibition” value was inactive: -6.02%.
O=S(=O)(NC1CC2CCC1C2)c1ccc(Br)cc1 (stereo unspecified) was tested, and the Potency was inconclusive [inhibitor, full curve, poor fit].
With N#C/C(=C\c1ccc2c(c1)OCCO2)C(=O)NC1CCCCC1 the “activity change, negative = inhibition” value was inactive: 9.55%.
For CC(C)n1cc(C(=O)N(CC(=O)NC(C)(C)C)Cc2ccccc2)cn1, the Potency was inconclusive [inhibitor, full curve, poor fit].
With CCNC(=S)Nc1ccc(Cl)c(C(F)(F)F)c1 the Potency was inconclusive [inhibitor, full curve, poor fit].
CCOc1ccc(OCC)c(NC(=O)CSc2nnc(-c3cccnc3)o2)c1 was tested, and the Potency was inconclusive [inhibitor, full curve].
Cc1nc2cc3sc(C)nc3cc2s1 was tested, and the “activity change, negative = inhibition” value was inactive: -1.43%.
In the case of Cn1c(C(=O)N2CCN(Cc3ccc4c(c3)OCO4)CC2)cc2c(=O)n(C)c3ccccc3c21, the Potency was inconclusive [inhibitor, full curve, poor fit].
For CCN(CC)c1ccc(S(=O)(=O)N2CCOCC2)cc1NC(=O)COC(=O)c1cccnc1SC, the Potency was inconclusive [inhibitor, full curve, poor fit].
With COc1ccc(/C=C/c2nc(C#N)c(NC3CCCCC3)o2)cc1OC the “activity change, negative = inhibition” value was inactive: 13.5%.
With CC1CC(=O)N(CC(=O)NC2CCCCC2)c2ccccc2S1 (stereo unspecified) the Potency was inconclusive [inhibitor, full curve, poor fit].
In the case of O=C(CCN1CCCCCC1)Nc1cccc(Cl)c1, the Potency was inconclusive [inhibitor, full curve, poor fit].
With CCN(CC)c1ccc(C(=O)NNC(=O)c2cccn2C)cc1 the Potency was inconclusive [inhibitor, full curve].
COc1ccc(C(=O)N/C(=C\c2cn(S(=O)(=O)N(C)C)c3ccccc23)C(=O)NCCN2CCOCC2)cc1 was tested, and the Potency was inconclusive [inhibitor, full curve, poor fit].
With O=C(Nc1ccc(S(=O)(=O)N2CCCC2)cc1)c1ccc(Br)o1 the “activity change, negative = inhibition” value was inactive: -8.94%.
For CCCCNC(=O)CNC(=S)N(Cc1cc(OC)c(OC)c(OC)c1)C1CCCC1, the Potency was inconclusive [inhibitor, full curve, poor fit].
For CCOC(=O)c1ccc2nc(NC(C)=O)sc2c1, the “activity change, negative = inhibition” value was inactive: 2.01%.
With Cc1ccccc1NS(=O)(=O)c1cccc(-c2nnc(-c3ccccc3)o2)c1 the Potency was inconclusive [inhibitor, full curve, poor fit].
With O=C(CSc1nnc(-c2cccs2)o1)N1CCCCC1 the Potency was inconclusive [inhibitor, full curve, poor fit].
For CCOC(=O)c1ccc(NC(=O)NC2CC3CCC(C2)N3)cc1 (stereo unspecified), the “activity change, negative = inhibition” value was inactive: 2.15%.
With N#CC1(NC(=O)CSc2nncn2-c2ccccc2F)CCCC1 the “activity change, negative = inhibition” value was inactive: -7.46%.
CCN1CCC(NC(=O)c2cc(OC)c(OC)cc2OC)CC1 was tested, and the Potency was inconclusive [inhibitor, full curve, poor fit].
COCCn1c(C)cc(C(=O)COC(=O)c2cccc(O)c2)c1C was tested, and the “activity change, negative = inhibition” value was inactive: -0.893%.
In the case of O=C(c1cc2c(s1)-c1ccccc1OC2)N1CCc2ccccc2C1, the Potency was inconclusive [inhibitor, full curve].
C=CCSc1n[nH]c(-c2ccccc2)n1 was tested, and the Potency was inconclusive [inhibitor, single point].
OCCNc1ncnc2c1c(-c1ccccc1)c(-c1ccccc1)n2Cc1ccco1 was tested, and the “activity change, negative = inhibition” value was inactive: -3.08%.
With O=C(Cn1nnc(-c2ccccc2)n1)N1CCN(c2ccc(F)cc2)CC1 the Potency was inconclusive [inhibitor, full curve, poor fit].
With CC1CN(c2cc(=O)n(-c3cccc(Br)c3)c(=O)[nH]2)CC(C)O1 (stereo unspecified) the Potency was inconclusive [inhibitor, partial curve, poor fit].
In the case of O=C(Nc1ccccc1)c1cn2ccccc2n1, the “activity change, negative = inhibition” value was inactive: -7.58%.
With CCOc1ccc(N2CC(C(=O)NCc3ccccc3)CC2=O)cc1 (stereo unspecified) the Potency was inconclusive [inhibitor, partial curve].
CCCCCN1CC(O)=C(c2ccccc2)C1=N was tested, and the Potency was inconclusive [inhibitor, full curve, poor fit].
For O=C(Nc1nc2ccccc2[nH]1)c1ccccc1[N+](=O)[O-], the “activity change, negative = inhibition” value was inactive: -7.23%.
With COc1ccccc1Oc1ccc(N/C=C/C(=O)C(C)(C)C)cc1 the Potency was inconclusive [inhibitor, single point].
In the case of Cc1cc2n(n1)SC(Nc1cc(Cl)ccc1Cl)N2 (stereo unspecified), the Potency was inconclusive [inhibitor, full curve, poor fit].
With CCOC(=O)Cc1csc(SCC(=O)N(CC(C)C)c2c(N)n(Cc3ccccc3)c(=O)[nH]c2=O)n1 the Potency was inconclusive [inhibitor, full curve, poor fit].
Cc1ccc(NC(=O)c2ccc(Cl)c(S(=O)(=O)N3CCCC3)c2)nc1 was tested, and the Potency was inconclusive [inhibitor, single point].
In the case of NS(=O)(=O)c1cccc(NC(=O)Cn2nc(C(=O)O)c3ccccc3c2=O)c1, the Potency was inconclusive [inhibitor, partial curve].
With COc1ccc(-c2ccc3c(N)c(C(=O)Nc4ccc(C)cc4C)sc3n2)cc1OC the Potency was inconclusive [inhibitor, single point].
With CCOc1ccccc1OCCCC(=O)NC1CCCc2ccccc21 (stereo unspecified) the “activity change, negative = inhibition” value was inactive: 2.9%.
For N#Cc1sc2nc(C3CC3)cc(-c3ccccc3)c2c1N, the Potency was inconclusive [inhibitor, single point].
With O=C(NCc1nnc(SCC(=O)N2CCCCC2)o1)c1ccc(F)cc1 the Potency was inconclusive [inhibitor, partial curve].
For Cc1c(N=C2N=C(NC(=O)Nc3ccc(Cl)cc3)c3ccccc32)c(=O)n(-c2ccccc2)n1C, the Potency was inconclusive [inhibitor, full curve, poor fit].
In the case of COCCn1c(C2CCCCC2)nc2sc3ccccc3c(=O)c2c1=O, the “activity change, negative = inhibition” value was inactive: -1.49%.
In the case of COc1ccc(-c2[nH]n(-c3ccc([N+](=O)[O-])cc3)c(=O)c2C=NCCN2CCNCC2)cc1, the Potency was inconclusive [inhibitor, full curve, poor fit].
For N#C/C(=C\c1cccs1)C(=O)NCc1ccco1, the “activity change, negative = inhibition” value was inactive: -7.35%.
With Cc1ccc(C(=O)OCN2C(=O)c3ccccc3C2=O)cc1S(=O)(=O)N1CCOCC1 the Potency was inconclusive [inhibitor, partial curve, poor fit].
With O=C(O)c1cc(S(=O)(=O)N2CCCCC2)ccc1N1CCCCC1 the Potency was inconclusive [inhibitor, full curve, poor fit].
